The values that follow come from article PMC4336329 (PLoS ONE, 2015).

The campaign covered roughly 310,000 compounds. About 14,000 (4.5%) showed an effect of 50% or more. The effect is printed as a negative number. Some of the results follow.
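Note: peak tail current of the secondary pulse compared with the same well before compound.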

For this experiment, the target named is human ether-à-go-go-related gene (hERG) potassium channel (human, UniProt Q12809). The experiment in a line: primary screen, population patch clamp on CHO cells stably expressing hERG.
Sequence of human ether-à-go-go-related gene (hERG) potassium channel (Q12809 whole entry, looked up): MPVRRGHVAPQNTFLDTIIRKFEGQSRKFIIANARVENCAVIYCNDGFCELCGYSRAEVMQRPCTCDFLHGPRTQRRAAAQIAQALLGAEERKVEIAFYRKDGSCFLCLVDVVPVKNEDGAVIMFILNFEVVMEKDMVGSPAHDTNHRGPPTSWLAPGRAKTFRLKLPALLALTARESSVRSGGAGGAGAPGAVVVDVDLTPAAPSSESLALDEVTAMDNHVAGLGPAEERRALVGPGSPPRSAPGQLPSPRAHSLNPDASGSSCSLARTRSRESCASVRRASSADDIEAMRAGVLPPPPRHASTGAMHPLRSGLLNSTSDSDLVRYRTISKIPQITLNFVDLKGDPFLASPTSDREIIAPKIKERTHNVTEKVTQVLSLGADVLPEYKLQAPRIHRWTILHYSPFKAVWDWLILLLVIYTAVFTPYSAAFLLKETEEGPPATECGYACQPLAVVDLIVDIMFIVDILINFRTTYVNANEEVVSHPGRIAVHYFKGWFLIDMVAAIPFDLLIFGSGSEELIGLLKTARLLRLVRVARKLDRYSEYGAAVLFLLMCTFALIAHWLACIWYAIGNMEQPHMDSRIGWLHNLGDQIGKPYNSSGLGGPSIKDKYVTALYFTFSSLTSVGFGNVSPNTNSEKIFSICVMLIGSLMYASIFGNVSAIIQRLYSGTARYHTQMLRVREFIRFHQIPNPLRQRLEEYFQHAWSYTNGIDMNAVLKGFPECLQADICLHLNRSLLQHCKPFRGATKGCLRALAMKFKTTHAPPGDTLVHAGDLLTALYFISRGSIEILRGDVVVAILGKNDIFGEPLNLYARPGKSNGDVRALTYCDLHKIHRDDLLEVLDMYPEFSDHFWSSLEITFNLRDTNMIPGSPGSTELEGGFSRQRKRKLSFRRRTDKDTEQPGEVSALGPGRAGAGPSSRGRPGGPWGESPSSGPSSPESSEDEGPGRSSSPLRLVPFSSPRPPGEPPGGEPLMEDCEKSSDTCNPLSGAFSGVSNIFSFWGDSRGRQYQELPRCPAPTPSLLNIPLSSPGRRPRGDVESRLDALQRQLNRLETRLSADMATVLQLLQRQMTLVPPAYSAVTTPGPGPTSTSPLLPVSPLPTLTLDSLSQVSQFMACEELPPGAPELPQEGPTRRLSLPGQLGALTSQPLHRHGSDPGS
For the compound `Cc1[nH]n(C(N)=S)c(=O)c1N=Nc1ccc(S(=O)(=O)N2CCCCCC2)cc1`, the “hERG current change (%, negative = inhibition) at 10uM” value was -9.6%.
On to `COc1cc(CCC(=O)OCC(=O)c2ccc[nH]2)cc(OC)c1OC`, for which the “hERG current change (%, negative = inhibition) at 10uM” value is reported as -2.96%.
In the case of `CCCc1nn(C)c(C(N)=O)c1[N+](=O)[O-]` it was 6.34%; in that of `CCCN(CCC)c1nc(-c2ccccn2)nc2ccccc12`, -74.4%; in that of `O=C(Nc1ccc(F)c([N+](=O)[O-])c1)C(=O)c1c(O)[nH]c2ccccc12`, 12.4%.
Then `COC(=O)c1sccc1NC(=S)Nc1ccc(F)cc1`, with 16.1%; and `CCOC(=O)C1CCCN(Cc2c(Cl)cccc2Cl)C1` (centres unmarked), with -6.47%.
Then `Cc1ccc(-c2cc(C(=O)NN=C3CCCC3)c3ccccc3n2)cc1`, with 4.39%.
Take `CC(=O)c1ccc(NC(=O)CN(C)CC(=O)Nc2cccc(F)c2)cc1`: the “hERG current change (%, negative = inhibition) at 10uM” value is reported as -18.5%.
For `CCn1c(=O)c([N+](=O)[O-])c(N2CCOCC2)c2ccccc21`, the “hERG current change (%, negative = inhibition) at 10uM” value was -7.79%.
In the case of `N#Cc1cc(-c2ccccc2)oc1NC(=O)c1ccccc1`, the “hERG current change (%, negative = inhibition) at 10uM” value is given as 8.6%.
As for `Cc1ccc(OCC(=O)Nc2ccc(S(=O)(=O)Nc3onc(C)c3C)cc2)cc1`, the “hERG current change (%, negative = inhibition) at 10uM” value was 7.72%.
Then `C[C@H](NC(=O)c1[nH]cnc1C(=O)Nc1ccon1)c1ccccc1`, with 23.5%.
Then `COC(=O)c1cc(S(=O)(=O)NCC2CCN(CCc3cccs3)CC2)c[nH]1`, with -51.1%; and `Cc1cccc(N2CCN(C(=O)CC(NC(=O)c3ccccc3Cl)c3ccccc3)CC2)c1C` (centres unmarked), with -59.9%.
In the case of `CCCc1c(C)c2cccc(C)c2[nH]c1=O` it was -2.27%; in that of `Cc1ccc(-c2cc(C(=O)N3CCN(c4ncccn4)CC3)c3ccccc3n2)cc1`, -40.9%.
As for `O=C(NCC(=O)N(c1ccc(F)cc1)C(C(=O)NC1CCCCC1)c1ccncc1)c1ccco1` (centres unmarked), the “hERG current change (%, negative = inhibition) at 10uM” value came to 10.7%.
Then `CN(C)S(=O)(=O)N1CCN(CC(O)COc2ccc(-c3ccccc3)cc2)CC1` (centres unmarked), with -27.3%; and `S=C(NC1CCCC1)N1CCN(c2cccc(Cl)c2)CC1`, with -0.877%.
As to `Cc1ccc(S(=O)(=O)N2CCN(CC(=O)N(CC(C)C)c3c(N)n(CC(C)C)c(=O)[nH]c3=O)CC2)c(C)c1`, the “hERG current change (%, negative = inhibition) at 10uM” value is 12.7%.
Then `CCCc1nc2sc3ccccc3c(=O)c2c(=O)n1Cc1ccc(OC)cc1`, with 5.49%.
`CCNc1nc(N)c(C(=O)C23CC4CC(CC(C4)C2)C3)s1`: the “hERG current change (%, negative = inhibition) at 10uM” value is given as -11.8%.
For the compound `CCC(C(=O)NCc1ccc(F)cc1)N(Cc1cccs1)C(=O)c1snc(C(N)=O)c1N` (centres unmarked), the “hERG current change (%, negative = inhibition) at 10uM” value is -45.7%.
In the case of `COc1ccc(C2c3[nH]c4ccccc4c3CCN2CCCn2cccn2)cc1C` (centres unmarked) it was -38.9%; in that of `Cn1c(N)c(C(=O)COC(=O)/C=C/c2cccc(F)c2)c(=O)n(C)c1=O`, -38.4%.
With `CC(C)(C)c1ccc(C(=O)CCC(=O)NCc2ccccc2)cc1`, the “hERG current change (%, negative = inhibition) at 10uM” value is on record as -25.2%.
Then `CCN(CC)S(=O)(=O)c1ccc2c(c1)c(=O)c(C(=O)NCCOC)cn2C`, with -2.75%; and `COc1cc(C(=O)OCC(=O)Nc2cc(C)on2)ccc1OCc1ccccc1Cl`, with 5.19%; and `CCCCOC(=O)Nc1ccc(C(=O)OC)cc1`, with 11.7%.
Then `CC(=O)c1ccc(NC(=O)CNCc2cccs2)cc1.O=C(O)C(=O)O`, with -0.848%; and `CCCCC(O)(CCCC)C(=O)NNc1ccccc1`, with 10.5%; and `C=CCn1c(/N=C/c2ccc(N(C)C)cc2)nc2ccccc21`, with -6.42%.
Consider `O=C(NCCO)C(O)C(O)C(=O)NCCO` (centres unmarked), for which the “hERG current change (%, negative = inhibition) at 10uM” value is listed as 7.53%.
Then `CCOCCCNC(=O)C(c1ccc(OC)cc1)N(Cc1cccs1)C(=O)c1ccccn1` (centres unmarked), with -2.44%; and `Cc1ccc(NC(=O)C(=O)NCCc2c[nH]c3ccccc23)c(C)c1`, with -12.5%; and `COc1ccc(C2CCCN2C(=O)Nc2ccc(C)c(C)c2)cc1OC` (centres unmarked), with -18.5%.
In the case of `N/C(=N\OC(=O)COc1ccc2ccccc2c1Br)c1ccncc1` it was 5.98%; in that of `CC(C)N1CN(c2ccccc2)C(=S)N(c2ccccc2)C1`, 7.3%; in that of `CCOC(=O)CNC(=O)CSc1nnnn1-c1ccc(C)c(C)c1`, -2.8%.
Then `Cc1ccc(NC(=S)N(CCCN2CCOCC2)Cc2ccccn2)cc1`, with -22.8%; and `O=C(CCS(=O)(=O)c1ccc(Br)s1)NCc1ccc2c(c1)OCO2`, with -14%; and `O=C(NNC(=O)C(c1ccccc1)c1ccccc1)c1cccs1`, with 23.8%.
With `COC(=O)N/N=C/c1ccc(-c2cccc(Cl)c2)o1`, the “hERG current change (%, negative = inhibition) at 10uM” value is -3.5%.
In the case of `O=C(Nc1ccccc1O)c1cc2cc(Br)ccc2oc1=O` it was 13.4%; in that of `COC(=O)CC1NCCNC1=O` (centres unmarked), 11.7%.
Then `CC(C)c1nnc(NC(=O)c2nc(S(=O)(=O)Cc3ccccc3F)ncc2Cl)s1`, with -5.79%; and `COCCn1c(-c2ccccc2Cl)nc2c(c(=O)c3ccccc3n2C)c1=O`, with -12.2%.
`CCOC(=O)CSC1=N/C(=C/c2ccc(-n3cncn3)cc2)C(=O)N1C(C)=O`: the “hERG current change (%, negative = inhibition) at 10uM” value is recorded as -0.255%.
As for `COCc1[nH]nc2c1C1(CCC3(CC1)OCCO3)C(C#N)=C(N)O2`, the “hERG current change (%, negative = inhibition) at 10uM” value came to 3.17%.
In the case of `Cn1c2c(c(=O)c3ccccc31)CCC(C)(C)O2` it was -3.57%; in that of `COc1cc(/C=C/C(=O)O)ccc1OCc1ccc([N+](=O)[O-])cc1`, 21.8%; in that of `O=[N+]([O-])c1cc(S(=O)(=O)N2CCCC2)ccc1OCCOc1ccccc1`, -32.4%.
In the case of `CCn1c2ccc(CC(=O)O)cc2c2cc(CC(=O)O)ccc21` it was 8%.
In the case of `C#CCN(C(=O)c1ccc(OC2CCN(Cc3ccccn3)CC2)cc1)C1CCCCC1` it was -39.6%; in that of `CCCCCNC(=O)C1CCC(Cn2c(=S)[nH]c3ccccc3c2=O)CC1` (centres unmarked), 13.5%.
`N#CC(C(=O)Nc1ccc(Cl)cc1)=C1Nc2ccccc2N1`: the “hERG current change (%, negative = inhibition) at 10uM” value was 8.33%.
For the compound `COc1cc(Cl)nn(-c2ccccc2)c1=O`, the “hERG current change (%, negative = inhibition) at 10uM” value was 1.61%.
In the case of `CC1CCCN(C(=O)Cc2cccc3ccccc23)C1` (centres unmarked) it was 8.56%; in that of `COc1ccc(C(=O)C2CCCN(C(=O)c3ccc4cc[nH]c4c3)C2)c(C)c1` (centres unmarked), -1.25%; in that of `CCOC(=O)CCN1C(=O)c2ccccc2Sc2ncccc21`, 12.5%.
Then `CCOC(=O)c1cccc(NS(=O)(=O)Cc2ccccc2)c1`, with 1.95%; and `COC(=O)C(C)NC(=O)C12CC3CC(C1)CC(c1ccc(C)cc1)(C3)C2` (centres unmarked), with -20.9%.
Then `Cc1cccc(N2CCN(S(=O)(=O)c3cccs3)CC2)c1C`, with -15.8%.
Take `CCN1C[C@]2(COC)CC[C@H](OC)[C@@]34C1[C@]1(OCO[C@@]15C[C@H](OC)[C@H]1C[C@@H]3[C@@H]5[C@H]1OC)[C@@H](O)[C@H]24`: the “hERG current change (%, negative = inhibition) at 10uM” value came to 10.5%.
Then `O=C(c1ccc2c(=O)n3c(nc2c1)CCCCC3)N1CCc2ccccc21`, with -48.3%; and `CCN(CC)C(=O)CSc1ccccc1N`, with 13%; and `Nc1c(C(=O)Nc2ccccc2)nnn1-c1ccc2c(c1)OCCO2`, with 16.1%.
Then `Cc1ccc(/C=N/NC(=O)Cn2cnc3ccccc32)o1`, with 3.48%; and `CN(Cc1nc(Cc2ccccc2F)no1)Cc1cccc2ncccc12`, with -35.7%; and `COC(=O)CCC(=O)c1oc2ccccc2c1N`, with -26.3%.
As for `COc1cc(NC(=S)N2CCN(C)CC2)cc(OC)c1`, the “hERG current change (%, negative = inhibition) at 10uM” value came to 16.7%.
Then `CCOc1cc(CNC2CCCC2)cc(Cl)c1OCc1ccccc1.Cl`, with -10.3%.
In the case of `COc1ccc(-c2csc3ncnc(N4CCN(C(=O)c5ccco5)CC4)c23)cc1` it was -75.3%; in that of `Cc1c(Cl)cccc1NC(=O)Cc1ccc([N+](=O)[O-])cc1`, -1.34%; in that of `C/C(CC(C)C)=N\NS(=O)(=O)c1ccc(C)c([N+](=O)[O-])c1`, -1.16%.
Take `CCC(Sc1nnnn1-c1ccccc1)C(=O)Nc1nc2ccccc2s1` (centres unmarked): the “hERG current change (%, negative = inhibition) at 10uM” value is given as -10.7%.
Regarding `COc1ccc(S(=O)(=O)N2CCC(C(=O)NCCCc3ccccc3)CC2)cc1`, the “hERG current change (%, negative = inhibition) at 10uM” value is recorded as -35.9%.
In the case of `COc1ccc(OC)c(C(=O)c2coc3ccc(OCC(=O)O)cc23)c1`, the “hERG current change (%, negative = inhibition) at 10uM” value was determined as 2.9%.
As for `Cc1nc2nc(SCC(=O)C(C)(C)C)[nH]c2cc1Br`, the “hERG current change (%, negative = inhibition) at 10uM” value amounted to 3.89%.
Then `CCOC(=O)C1=C(CC)Nc2ccccc2N=C1NC(=O)CCN1C(=O)C2CCCCC2C1=O` (centres unmarked), with 5.04%; and `Cc1ccc2c(C)c(C(=O)Nc3ccc(S(N)(=O)=O)cc3)oc2c1C`, with 31.2%; and `Cc1ccc(-n2c(O)c(C=NC3CCS(=O)(=O)C3)c3ccccc3c2=O)c(C)c1` (centres unmarked), with -0.346%.
In the case of `O=C(CN1C(=O)C(=O)c2ccccc21)c1ccccc1` it was 10.9%.
Then `CC1(c2ccccc2Cl)NC(=O)N(CC(=O)NCc2ccc3c(c2)OCO3)C1=O` (centres unmarked), with 7.45%; and `COc1ccc(CNC(=O)c2ccc(CS(=O)c3ccccc3)o2)cc1` (centres unmarked), with 4.41%.
Turning to `CCc1nnc(SCc2ccc(OC(C)C)cc2)n1N`, the “hERG current change (%, negative = inhibition) at 10uM” value worked out at 9.36%.
In the case of `COc1ccc(OC)c(NC(=O)CSC2=NN3CCCC(=O)N=C3S2)c1` it was 7.78%; in that of `O=C(c1ccc(-n2cncn2)c([N+](=O)[O-])c1)N1CCN(S(=O)(=O)c2ccc(Cl)cc2)CC1`, -61.4%.
